# According to the supplement of paper PMC9446081:
# Screen size: about 39,000 compounds; about 220 (0.56%) showed activity. The list shows a part of the results.
# System: Escherichia coli K-12 BW25113
# Assay: relative growth (OD600 normalised to plate interquartile mean) (fraction); higher = less growth inhibition, active = 0.2 or less
# Conditions: 50 µM; LB; incubation time: overnight (16-24 h)
# 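Also: static incubation at 37 °C against the wild-type strain, values averaged over two biological replicates.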
row,Compound,relative growth
1,Cc1noc(C)c1S(=O)(=O)N(C)C[C@@H]1Oc2ccc(NS(=O)(=O)c3ccccc3)cc2CC(=O)N([C@@H](C)CO)C[C@H]1C,inactive: 1.03
2,C[C@H]1CN([C@@H](C)CO)C(=O)c2ccccc2-c2ccccc2CO[C@H]1CN(C)Cc1cccc2c1OCCCO2,inactive: 1.02
3,COc1cccc(C#Cc2ccc3c(c2)O[C@@H](CN(C)C(=O)c2ccccn2)[C@H](C)CN([C@H](C)CO)S3(=O)=O)c1,inactive: 1.02
4,C[C@H](CO)N1C[C@H](C)[C@H](CN(C)S(=O)(=O)c2cn(C)cn2)OCCCC[C@H](C)Oc2ccc(NS(=O)(=O)c3ccc(F)cc3)cc2C1=O,inactive: 1.01
5,C=CCC[C@H](Cc1ccc(F)cc1)C(=O)OC[C@@H](NC(=O)[C@H](CC=C)CC(=O)N(CCO)Cc1ccccc1)C(C)(C)C,inactive: 1.03
6,Cc1noc(C)c1NC(=O)N(C)C[C@@H]1OCCCC[C@@H](C)Oc2ccc(NC(=O)Nc3cccc4ccccc34)cc2C(=O)N([C@@H](C)CO)C[C@H]1C,inactive: 1.01
7,COc1cccc(S(=O)(=O)N(C)C[C@@H]2OCc3cnnn3CCCC(=O)N([C@@H](C)CO)C[C@H]2C)c1,inactive: 0.955
8,C=CC1CN2CCC1CC2C(O)c1ccnc2ccc(OC)cc12.O=C(O)C(O)C(O)C(O)C(O)CO (stereo not given),inactive: 0.949
9,COc1ccc(S(=O)(=O)N(C)C[C@H]2OCCCC[C@@H](C)Oc3ccc(NC(=O)Nc4ccc(F)cc4)cc3C(=O)N([C@H](C)CO)C[C@@H]2C)cc1,inactive: 1.07
10,C[C@H]1CN([C@@H](C)CO)C(=O)Cc2cc(NC(=O)Nc3ccccc3)ccc2O[C@H]1CN(C)C(=O)Nc1cccc2ccccc12,inactive: 0.993
11,Cc1cc(=O)oc2cc(O)c(O)cc12,inactive: 1.04
12,COc1ccc(CC2c3cc(OC)c(OC)cc3CC[N+]2(C)CCC(=O)OCCCCCOC(=O)CC[N+]2(C)CCc3cc(OC)c(OC)cc3C2Cc2ccc(OC)c(OC)c2)cc1OC.O=S(=O)([O-])c1ccccc1.O=S(=O)([O-])c1ccccc1 (stereo not given),inactive: 0.995
13,COCC(=O)N1C[C@@H](C)[C@H](OC)CN(C)C(=O)c2cc(NC(=O)c3cc(C)on3)ccc2OC[C@@H]1C,inactive: 0.955
14,C[C@@H]1CN([C@H](C)CO)C(=O)Cc2cc(NC(=O)NC3CCCCC3)ccc2O[C@@H]1CN(C)Cc1ccc(C(=O)Nc2ccccc2N)cc1,inactive: 1.02
15,C[C@H]1CCCCO[C@H](CN(C)S(C)(=O)=O)[C@@H](C)CN([C@@H](C)CO)C(=O)c2cc(NS(=O)(=O)c3ccccc3)ccc2O1,inactive: 1.02
16,COCC(=O)N(C)C[C@H]1Oc2cc(C#C[C@@H](C)O)ccc2S(=O)(=O)N([C@@H](C)CO)C[C@@H]1C,inactive: 1.03
17,CS(=O)(=O)Cc1ccc(C(=O)O)cc1,inactive: 0.988
18,CC(C)NC(=O)Nc1cccc2c1O[C@@H](CN(C)C(=O)NC1CCCCC1)[C@@H](C)CN([C@@H](C)CO)C2=O,inactive: 1.01
19,CCC=C(C(=O)NC1C(=O)N2C(C(=O)OCOC(=O)C(C)(C)C)=C(COC(N)=O)CSC12)c1csc(N)n1.Cl (stereo not given),active: 0.0724
20,C[C@H](CO)N1C[C@H](C)[C@H](CN(C)S(=O)(=O)c2cccs2)Oc2ccc(NS(=O)(=O)c3cccs3)cc2C1=O,inactive: 1.01

row,Compound,relative growth
1,C[C@H]1CN([C@@H](C)CO)C(=O)Cc2cc(NS(=O)(=O)c3ccccc3)ccc2O[C@@H]1CN(C)Cc1ccc(C(=O)O)cc1,inactive: 0.987
2,C[C@H](CO)N1C[C@H](C)[C@H](CN(C)Cc2ccncc2)Oc2ccc(NC(=O)Nc3cccc4ccccc34)cc2C1=O,inactive: 0.982
3,CN1C(=O)c2cc(NC(=O)c3cccs3)ccc2OC[C@@H]2O[C@H](CC(=O)NCC(F)(F)F)CC[C@@H]21,inactive: 0.999
4,C=CC[C@@H](CC(=O)N(CCO)Cc1ccccc1)C(=O)NCCOC(=O)[C@H](CC=C)CC(=O)OC(C)(C)C,inactive: 0.984
5,COc1cc(OC)cc(C(=O)OCCN2CCN(CCOC(=O)c3cc(OC)cc(OC)c3)CC2)c1,inactive: 0.958
6,C[C@H](CO)N1C[C@H](C)[C@H](CN(C)S(=O)(=O)c2ccccc2)OCCCC[C@H](C)Oc2ccc(NC(=O)c3ccccc3)cc2C1=O,inactive: 1.03
7,CN(C)CCCNC(=O)C[C@@H]1CC[C@@H]2[C@H](COc3ccc(NC(=O)c4cccc(F)c4)cc3C(=O)N2C)O1,inactive: 0.941
8,C[C@H]1CN([C@@H](C)CO)S(=O)(=O)c2ccc(C#CCC3CCCC3)cc2O[C@@H]1CN(C)C(=O)CN(C)C,inactive: 0.989
9,Brc1ccc(-c2ccc(C3CCCCC3)cn2)cc1,inactive: 1.02
10,Cc1noc(C)c1S(=O)(=O)Nc1ccc2c(c1)C(=O)N([C@@H](C)CO)C[C@@H](C)[C@@H](CN(C)C(=O)Nc1cccc3ccccc13)OCCCC[C@H](C)O2,inactive: 1.02
11,C[C@@H]1CN([C@H](C)CO)C(=O)c2cc(NS(=O)(=O)c3cccs3)ccc2O[C@@H]1CN(C)Cc1ccc(-c2ccccc2)cc1,inactive: 1.04
12,C[C@@H]1CCCCO[C@@H](CN(C)S(=O)(=O)c2ccc(F)cc2)[C@@H](C)CN([C@@H](C)CO)C(=O)c2cc(NC(=O)CCC(F)(F)F)ccc2O1,inactive: 0.975
13,Cc1ccc(S(=O)(=O)Nc2ccc3c(c2)CC(=O)N([C@H](C)CO)C[C@H](C)[C@H](CN(C)S(C)(=O)=O)O3)cc1,inactive: 1.02
14,CN1C[C@@H]2CN(C(=O)c3ccnn3C)C[C@H]2C1=O,inactive: 1.02
15,Cc1noc(C)c1NC(=O)Nc1ccc2c(c1)CC(=O)N([C@@H](C)CO)C[C@@H](C)[C@H](CN(C)S(=O)(=O)c1c(C)noc1C)O2,inactive: 0.992
16,CO[C@@H]1CN(C)C(=O)c2cc(NC(=O)C3CC3)ccc2OC[C@@H](C)N(C(=O)CN2CCOCC2)C[C@H]1C,inactive: 1.02
17,COc1ccc2c(c1)OCC(Cc1ccc(O)c(OC)c1)C2=O (stereo not given),inactive: 1.05
18,C[C@@H]1CN([C@H](C)CO)C(=O)Cc2cc(NC(=O)Nc3cccc4ccccc34)ccc2O[C@H]1CN(C)C(=O)Nc1ccccc1,inactive: 1
19,Nc1ccc(C(=O)O)cc1,inactive: 0.922
20,Cc1noc(C)c1NC(=O)N(C)C[C@H]1Oc2ccc(NC(=O)NC(C)C)cc2CC(=O)N([C@@H](C)CO)C[C@@H]1C,inactive: 1.01

row,Compound,relative growth
1,NC(=O)[C@H]1Cc2ccccc2N1,inactive: 0.985
2,C[C@H](CO)N1C[C@H](C)[C@@H](CN(C)S(=O)(=O)c2ccc(F)cc2)OCCCC[C@H](C)Oc2ccc(NS(=O)(=O)c3ccc(Cl)cc3)cc2C1=O,inactive: 1.01
3,C[C@H](CO)N1C[C@H](C)[C@H](CN(C)Cc2ccc(Cl)c(Cl)c2)OCCCC[C@H](C)Oc2ccc(NC(=O)NC3CCCCC3)cc2C1=O,inactive: 1.03
4,Cc1ccc(S(=O)(=O)N[C@@H]2CC[C@H](CCNC(=O)CN3CCOCC3)O[C@H]2CO)cc1,inactive: 1.02
5,C[C@@H]1CCCCO[C@@H](CN(C)C(=O)Nc2ccc(C(F)(F)F)cc2)[C@H](C)CN([C@H](C)CO)C(=O)c2cc(NC(=O)Nc3ccccc3)ccc2O1,inactive: 1.03
6,Cc1noc(C)c1NC(=O)Nc1ccc2c(c1)C(=O)N([C@H](C)CO)C[C@@H](C)[C@H](CN(C)S(=O)(=O)c1ccccc1)OCCCC[C@@H](C)O2,inactive: 0.986
7,Cc1ccc(S(=O)(=O)Nc2ccc3c(c2)C(=O)N([C@@H](C)CO)C[C@@H](C)[C@@H](CN(C)S(C)(=O)=O)O3)cc1,inactive: 0.899
8,C[C@@H]1CN([C@@H](C)CO)C(=O)c2cc(NC(=O)CCCCCC(=O)Nc3ccccc3N)ccc2O[C@@H]1CN(C)C(=O)Nc1ccc(F)cc1,inactive: 1.01
9,Cc1cc(=O)n2nc(C(=O)O)nc2[nH]1,inactive: 0.991
10,C=CC[C@@H](CC(=O)NCCO)C(=O)N[C@H](COC(=O)[C@@H](CC=C)CC(=O)OC(C)(C)C)Cc1ccccc1,inactive: 0.849
11,C[C@H]1CN([C@@H](C)CO)C(=O)c2cc(N(C)C)ccc2O[C@H]1CN(C)S(C)(=O)=O,inactive: 0.993
12,O=C(C[C@H]1C=C[C@H](NC(=O)c2cnccn2)[C@H](CO)O1)NCc1ccccc1F,inactive: 1.03
13,COc1ccc(NC(=O)N(C)C[C@H]2Oc3c(NC(=O)Nc4ccc(C(F)(F)F)cc4)cccc3C(=O)N([C@@H](C)CO)C[C@H]2C)cc1,inactive: 1.02
14,C[C@@H]1CCCCO[C@@H](CN(C)CC2CCCCC2)[C@H](C)CN([C@@H](C)CO)C(=O)c2cc(NC(=O)Nc3ccccc3)ccc2O1,inactive: 0.925
15,COc1cccc(C#Cc2ccc3c(c2)O[C@@H](CN(C)C(=O)CN2CCOCC2)[C@@H](C)CN([C@H](C)CO)S3(=O)=O)c1,inactive: 0.995
16,O=C(CCCCCNC(=O)OCc1ccc(CO[C@H]2C[C@@H](c3ccc4c(c3)OCO4)C=C(C(=O)N3CCOCC3)O2)cc1)NO,inactive: 0.979
17,COc1ccc(NC(=O)Nc2ccc3c(c2)C(=O)N([C@H](C)CO)C[C@H](C)[C@H](CN(C)C(=O)Nc2ccccc2)OCCCC[C@H](C)O3)cc1,inactive: 1.05
18,c1cc(CCN2CCNCC2)ccn1,inactive: 1.02
19,C[C@@H]1CN([C@@H](C)CO)C(=O)Cc2cc(NS(C)(=O)=O)ccc2O[C@H]1CN(C)Cc1ccc(C(=O)O)cc1,inactive: 1.01
20,CO[C@H](CN(C)S(=O)(=O)c1ccc(Cl)cc1)[C@H](C)CN([C@@H](C)CO)S(=O)(=O)c1cccc(Cl)c1,inactive: 1.01
